Laboratory results reported in the supplement of paper PMC4604168 (melanoma cell lines).
This is one part of the list. Many values rest on one well or one pass, so single values are uncertain.

Key:
Assay in all cases: cell count relative to DMSO control; melanoma cells; higher = more viable cells
Conditions in all cases: library dose: low library concentration; 72 h
WM115 = system: WM115
WM1716 = system: WM1716
WM1745 = system: WM1745
WM3526 = system: WM3526
WM3619 = system: WM3619
WM451Lu = system: WM451Lu
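Also: cell number obtained by counting DAPI-stained nuclei in high-throughput microscope images with image analysis software, screen run in 1,536-well plates.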

| Compound | cell count (WM115) [%] | cell count (WM1716) [%] | cell count (WM1745) [%] | cell count (WM3526) [%] | cell count (WM3619) [%] | cell count (WM451Lu) [%] |
| --- | --- | --- | --- | --- | --- | --- |
| CS(=O)(=O)c1ccc(C(=O)Nc2ccc(Cl)c(-c3ccccn3)c2)c(Cl)c1 [vismodegib] + C[As](C)SC[C@H](NC(=O)CC[C@H](N)C(=O)O)C(=O)NCC(=O)O [Darinaparsin] (first compound 1 µM, partner dose 0.4 µM) | 118 | 115 | 120 | 123 | 107 | 95.3 |
| Cn1cnc2c(F)c(Nc3ccc(Br)cc3Cl)c(C(=O)NOCCO)cc21 [selumetinib] + C[As](C)SC[C@H](NC(=O)CC[C@H](N)C(=O)O)C(=O)NCC(=O)O [Darinaparsin] (first compound 0.015 µM, partner dose 0.4 µM) | 106 | 117 | 99 | 85.7 | 86.2 | 96.1 |
| CO[C@@H]1[C@H](N(C)C(=O)c2ccccc2)C[C@H]2O[C@]1(C)n1c3ccccc3c3c4c(c5c6ccccc6n2c5c31)C(=O)NC4 [Midostaurin] + C/C(O)=C(\C#N)C(=O)Nc1cc(Br)ccc1Br [LFM-A13] (first compound 0.08 µM, partner dose 2 µM) | 80.5 | 79.9 | 90.8 | 93.7 | 94.8 | 102 |
| CN(NC(=O)CC(=O)NN(C)C(=S)c1ccccc1)C(=S)c1ccccc1 + O=C(Oc1ccc([N+](=O)[O-])cc1)N1CCC(C(O)(c2ccc3c(c2)OCO3)c2ccc3c(c2)OCO3)CC1 [JZL184] (first compound 0.006 µM, partner dose 1 µM) | 85.9 | 79.3 | 42.6 | 97.4 | 94.3 | 166 |
| Cc1cc(Nc2cc(N3CCN(C)CC3)nc(/C=C/c3ccccc3)n2)n[nH]1 + O=C(Oc1ccc([N+](=O)[O-])cc1)N1CCC(C(O)(c2ccc3c(c2)OCO3)c2ccc3c(c2)OCO3)CC1 [JZL184] (first compound 0.04 µM, partner dose 1 µM) | 77.9 | 96.8 | 84.1 | 102 | 131 | 98.6 |
| COc1cc2c(Oc3ccc4[nH]c(C)cc4c3F)ncnc2cc1OCCCN1CCCC1 [cediranib] + O=C(Oc1ccc([N+](=O)[O-])cc1)N1CCC(C(O)(c2ccc3c(c2)OCO3)c2ccc3c(c2)OCO3)CC1 [JZL184] (first compound 0.4 µM, partner dose 1 µM) | 106 | 93.4 | 94 | 83.4 | 111 | 94.4 |
| CS(=O)(=O)c1ccc(C(=O)Nc2ccc(Cl)c(-c3ccccn3)c2)c(Cl)c1 [vismodegib] + N.N.[Cl][Pt][Cl] [cisplatin] (first compound 1 µM, partner dose 1.6 µM) | 109 | 106 | 98.1 | 87.2 | 97 | 122 |
| O=C(/C=C/c1cccnc1)NCCCCC1CCN(C(=O)c2ccccc2)CC1 + C/C(O)=C(\C#N)C(=O)Nc1cc(Br)ccc1Br [LFM-A13] (first compound 0.01 µM, partner dose 2 µM) | 95.1 | 102 | 110 | 110 | 65.6 | 105 |
| Cc1ccc(NC(=O)c2cccc(N(C)C)c2)cc1NC(=O)c1ccc(O)cc1 + Cc1cc(SCc2sc(-c3ccc(C(F)(F)F)c(F)c3)nc2C)ccc1OCC(=O)O [GW0742] (first compound 2 µM, partner dose 2 µM) | 104 | 116 | 83.9 | 99.6 | 97.6 | 105 |
| Cc1ccc(Nc2nccc(N(C)c3ccc4c(C)n(C)nc4c3)n2)cc1S(N)(=O)=O [Pazopanib] + C[C@]12O[C@H](C[C@]1(O)CO)n1c3ccccc3c3c4c(c5c6ccccc6n2c5c31)CNC4=O [Lestaurtinib] (first compound 0.4 µM, partner dose 0.004 µM) | 88.2 | 85.6 | 82.9 | 89 | 99.2 | 85 |
| CS(=O)(=O)c1ccc(C(=O)Nc2ccc(Cl)c(-c3ccccn3)c2)c(Cl)c1 [vismodegib] + O=C(Oc1ccc([N+](=O)[O-])cc1)N1CCC(C(O)(c2ccc3c(c2)OCO3)c2ccc3c(c2)OCO3)CC1 [JZL184] (first compound 1 µM, partner dose 1 µM) | 99.6 | 96.4 | 114 | 83 | 99.7 | 99.7 |
| CC1(C)NC(=O)N(c2ccc([N+](=O)[O-])c(C(F)(F)F)c2)C1=O [nilutamide] + C/C(O)=C(\C#N)C(=O)Nc1cc(Br)ccc1Br [LFM-A13] (first compound 1 µM, partner dose 2 µM) | 108 | 80.7 | 83.1 | 93.5 | 88.7 | 103 |
| CCN(CC)CCNC(=O)c1c(C)[nH]c(/C=C2\C(=O)Nc3ccc(F)cc32)c1C [sunitinib] + C/C(O)=C(\C#N)C(=O)Nc1cc(Br)ccc1Br [LFM-A13] (first compound 0.4 µM, partner dose 2 µM) | 101 | 117 | 82.9 | 74.1 | 106 | 78.3 |
| O=C(O)[C@@H]1[O][Sb](=[O])([O][Sb]2(=[O])[O][C@H]([C@H](O)CO)[C@H](O)[C@H](C(=O)O)[O]2)[O][C@H]([C@H](O)CO)[C@@H]1O (stereo not given in full) [stibogluconate] + C/C(O)=C(\C#N)C(=O)Nc1cc(Br)ccc1Br [LFM-A13] (first compound 2 µM, partner dose 2 µM) | 94.1 | 94.9 | 99.8 | 93.7 | 114 | 108 |
| Cn1nnc2c(C(N)=O)ncn2c1=O [temozolomide] + O=C(Oc1ccc([N+](=O)[O-])cc1)N1CCC(C(O)(c2ccc3c(c2)OCO3)c2ccc3c(c2)OCO3)CC1 [JZL184] (first compound 2 µM, partner dose 1 µM) | 102 | 89.7 | 77.1 | 110 | 91.9 | 116 |
| Cn1cnc2c(F)c(Nc3ccc(Br)cc3Cl)c(C(=O)NOCCO)cc21 [selumetinib] + C[C@]12O[C@H](C[C@]1(O)CO)n1c3ccccc3c3c4c(c5c6ccccc6n2c5c31)CNC4=O [Lestaurtinib] (first compound 0.015 µM, partner dose 0.004 µM) | 89.7 | 123 | 82.1 | 70.3 | 68 | 98.7 |
| C[C@@H](Oc1cc(-c2cnn(C3CCNCC3)c2)cnc1N)c1c(Cl)ccc(F)c1Cl [Crizotinib] + O=C(Oc1ccc([N+](=O)[O-])cc1)N1CCC(C(O)(c2ccc3c(c2)OCO3)c2ccc3c(c2)OCO3)CC1 [JZL184] (first compound 0.2 µM, partner dose 1 µM) | 93.8 | 94.8 | 112 | 93.4 | 117 | 98.5 |
| C[C@@H](N)c1ccc(C(=O)Nc2ccnc3[nH]ccc23)cc1 + C[C@]12O[C@H](C[C@]1(O)CO)n1c3ccccc3c3c4c(c5c6ccccc6n2c5c31)CNC4=O [Lestaurtinib] (first compound 0.4 µM, partner dose 0.004 µM) | 106 | 70.5 | 84.3 | 128 | 108 | 98.9 |
| CC1(C)CCC(c2ccc(Cl)cc2)=C(CN2CCN(c3ccc(C(=O)NS(=O)(=O)c4ccc(N[C@H](CCN5CCOCC5)CSc5ccccc5)c(S(=O)(=O)C(F)(F)F)c4)cc3)CC2)C1 + C[C@]12O[C@H](C[C@]1(O)CO)n1c3ccccc3c3c4c(c5c6ccccc6n2c5c31)CNC4=O [Lestaurtinib] (first compound 0.4 µM, partner dose 0.004 µM) | 90.4 | 104 | 14.7 | 102 | 92 | 96.3 |
| OCc1c[nH]c2ccccc12 [Indole-3-carbinol] + C[As](C)SC[C@H](NC(=O)CC[C@H](N)C(=O)O)C(=O)NCC(=O)O [Darinaparsin] (first compound 0.8 µM, partner dose 0.4 µM) | 93.6 | 93.1 | 102 | 90.7 | 99 | 96.8 |
| CC1(C)CCC(c2ccc(Cl)cc2)=C(CN2CCN(c3ccc(C(=O)NS(=O)(=O)c4ccc(N[C@H](CCN5CCOCC5)CSc5ccccc5)c(S(=O)(=O)C(F)(F)F)c4)cc3)CC2)C1 + N.N.[Cl][Pt][Cl] [cisplatin] (first compound 0.4 µM, partner dose 1.6 µM) | 78.5 | 69.8 | 8.89 | 96.1 | 67.6 | 73.3 |
| N#CC[C@H](C1CCCC1)n1cc(-c2ncnc3[nH]ccc23)cn1 [ruxolitinib] + Cn1cc(C2=C(c3cn(C4CCN(Cc5ccccn5)CC4)c4ccccc34)C(=O)NC2=O)c2ccccc21 [Enzastaurin] (first compound 1 µM, partner dose 0.8 µM) | 106 | 114 | 90 | 136 | 112 | 102 |
| C[C@@H](Oc1cc(-c2cnn(C3CCNCC3)c2)cnc1N)c1c(Cl)ccc(F)c1Cl [Crizotinib] + C/C(O)=C(\C#N)C(=O)Nc1cc(Br)ccc1Br [LFM-A13] (first compound 0.2 µM, partner dose 2 µM) | 103 | 99 | 102 | 99.7 | 111 | 84.2 |
| CN(c1ncccc1CNc1nc(Nc2ccc3c(c2)CC(=O)N3)ncc1C(F)(F)F)S(C)(=O)=O + Cc1cc(SCc2sc(-c3ccc(C(F)(F)F)c(F)c3)nc2C)ccc1OCC(=O)O [GW0742] (first compound 0.08 µM, partner dose 2 µM) | 83.5 | 96.8 | 86.9 | 106 | 98.4 | 94.2 |
| Cn1sc(=O)n(Cc2ccccc2)c1=O + C[C@]12O[C@H](C[C@]1(O)CO)n1c3ccccc3c3c4c(c5c6ccccc6n2c5c31)CNC4=O [Lestaurtinib] (first compound 0.4 µM, partner dose 0.004 µM) | 101 | 103 | 114 | 97.5 | 90.2 | 108 |
